According to PMC4336329 (PLoS ONE, 2015):
Out of some 310,000 compounds screened, about 14,000 (4.5%) showed an effect of 50% or more. The effect is printed as a negative number. This is one part of the list. Where a SMILES comes first, the peptide text is derived from it. [ ]: non-standard residue; d: D form. ξ: configuration not given here. ξV = CC(C)C(N)C(=O)O

These molecules were tested against human ether-à-go-go-related gene (hERG) potassium channel (human, UniProt Q12809) (assay: primary screen, population patch clamp on CHO cells stably expressing hERG).
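Further: peak tail current of the secondary pulse compared with the same well before compound.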

Chain of human ether-à-go-go-related gene (hERG) potassium channel (Q12809 whole entry, looked up): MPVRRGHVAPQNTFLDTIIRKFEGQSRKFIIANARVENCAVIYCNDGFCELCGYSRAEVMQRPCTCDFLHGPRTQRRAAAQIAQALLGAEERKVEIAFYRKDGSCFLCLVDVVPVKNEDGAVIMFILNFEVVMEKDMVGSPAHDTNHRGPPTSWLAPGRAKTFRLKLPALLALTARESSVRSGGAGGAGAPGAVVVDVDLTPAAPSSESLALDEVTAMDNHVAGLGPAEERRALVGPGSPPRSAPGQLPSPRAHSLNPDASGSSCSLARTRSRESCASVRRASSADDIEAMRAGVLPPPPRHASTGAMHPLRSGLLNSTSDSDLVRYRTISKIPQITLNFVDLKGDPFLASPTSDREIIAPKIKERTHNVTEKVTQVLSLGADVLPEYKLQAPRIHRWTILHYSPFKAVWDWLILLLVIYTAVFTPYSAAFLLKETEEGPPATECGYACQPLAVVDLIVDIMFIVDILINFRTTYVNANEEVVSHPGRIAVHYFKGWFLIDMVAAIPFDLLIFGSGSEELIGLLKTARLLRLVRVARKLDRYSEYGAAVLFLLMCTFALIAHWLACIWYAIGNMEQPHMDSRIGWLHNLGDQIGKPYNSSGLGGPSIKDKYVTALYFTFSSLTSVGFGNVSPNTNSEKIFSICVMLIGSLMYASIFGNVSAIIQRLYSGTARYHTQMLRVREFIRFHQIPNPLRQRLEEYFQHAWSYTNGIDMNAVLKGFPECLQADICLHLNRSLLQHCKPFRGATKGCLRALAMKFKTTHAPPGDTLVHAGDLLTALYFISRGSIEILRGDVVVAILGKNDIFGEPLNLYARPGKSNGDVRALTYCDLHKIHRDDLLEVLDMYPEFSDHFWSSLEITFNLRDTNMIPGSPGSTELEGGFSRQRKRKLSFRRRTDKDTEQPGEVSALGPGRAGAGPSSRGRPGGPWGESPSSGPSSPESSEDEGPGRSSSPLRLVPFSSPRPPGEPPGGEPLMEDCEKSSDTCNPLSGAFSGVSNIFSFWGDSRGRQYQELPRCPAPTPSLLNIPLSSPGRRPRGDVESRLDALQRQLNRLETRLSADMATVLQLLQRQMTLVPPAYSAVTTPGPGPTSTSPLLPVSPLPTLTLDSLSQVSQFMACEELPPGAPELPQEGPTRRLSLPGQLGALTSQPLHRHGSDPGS

Row | SMILES | hERG current change (%, negative = inhibition) at 10uM [%]
1 | COc1ccc(CCN(C)C/C=C/c2ccccc2[N+](=O)[O-])cc1OC | -70.8
2 | CCCCN1C(=O)/C(=C2\SC(N3CCOCC3)=NC2=O)c2ccccc21 | 10.5
3 | CCc1ccc(C(=O)Nc2ccc3c(c2)n(C)c(=O)n3C)cc1 | -48.4
4 | CCOC(=O)Cc1csc(SCC(=O)N2CCN(c3ccc(OC)cc3)CC2)n1 | -27.7
5 | COc1ccc(-n2c(C)n[nH]c2=O)cc1 | 9.11
6 | COc1ccccc1-n1c(C)nc(=O)c(-c2ccccc2)c1C | 16.8
7 | Cc1ccc(C)c(C(=O)NC2CC(C)(C)NC(C)(C)C2)c1 | 14.4
8 | CC(C)[C@H](NS(=O)(=O)c1cccc(Cl)c1)C(=O)OCC(=O)N1CCN(c2ccccc2)CC1 | -26.7
9 | CCOC(=O)c1sc(NC(=O)CSC(=S)N2CCN(C)CC2)nc1C | -39.8
10 | COc1ccc(-c2ccc(-c3noc(-c4ccccc4C)n3)c(OC)n2)cc1 | 6.35
11 | COc1ccccc1C(=O)NCC(=O)Nc1ccccc1 | 5.97
12 | O=C(NCCN1CCCC1)c1cc(-c2ccncc2)nc2ccc(S(=O)(=O)N3CCOCC3)cc12 | 3.31
13 | CCOc1cc(C(=O)N2CCC3(CC2)OCCO3)cc(OCC)c1OCC | -12.5
14 | CCc1ccc(C(=O)COC(=O)CNC(=O)COc2ccccc2)cc1 | -57.4
15 | Cc1cc(C)nc(SC2CC(=O)N(c3ccc(C)c(C)c3)C2=O)n1 (centres unmarked) | 5.84
16 | O=C(NCc1ccc(Cl)cc1)C1CCN(C(=O)c2ccco2)CC1 | -41.4
17 | O=C(NCCCn1ccnc1)C(=O)NCC1OCCN1S(=O)(=O)c1ccc(Cl)cc1 (centres unmarked) | 19
18 | CSc1ccc(/C=C2\C(=N)N3N=C(CC(=O)N4CCOCC4)SC3=NC2=O)cc1 | 14.2
19 | Cc1cccc(NC(=O)CC2NCCNC2=O)c1 (centres unmarked) | 8.94
20 | COc1ccc(N2CCN(Cc3nnnn3C3CCCCC3)CC2)cc1 | 6.34
21 | O=C(Nc1cccc(NC(=O)c2ccco2)c1)c1ccc2c(c1)OCCO2 | -20.6
22 | CN(C)c1ccc(/C=C/C(O)=C2/C(=O)N(C)C3(C)CC2c2ccccc2O3)cc1 (centres unmarked) | 18
23 | CCn1cc(S(=O)(=O)CC(=O)Nc2ccc3c(c2)OCCO3)c2ccccc21 | -13.1

Row | SMILES | hERG current change (%, negative = inhibition) at 10uM [%]
24 | c1ccc2c(c1)ccc1nnnn12 | 9.57
25 | CCOc1ccc(N(CC(=O)NC(C)(C)C)C(=O)CCC(=O)Nc2nccs2)cc1 | 0.211
26 | COc1ccc(-c2nc3ccc(C)cc3c(=O)o2)cc1OC | 9.21
27 | O=S(=O)(c1ccccc1)c1nc(Cc2ccccc2)oc1N1CCOCC1 | 19.1
28 | Cc1cc2cc(CNC(=O)CC(C)C)ccc2n1C | 5.18
29 | Cn1c(N2CCOCC2)nc2c1c(=O)n(Cc1ccc(Cl)cc1)c(=O)n2C | -54.5
30 | COC(=O)c1c(C)[nH]c(C(=O)NCCc2ccc(S(N)(=O)=O)cc2)c1C | 24.2
31 | COc1ccccc1C1CCN(C(=O)c2cccs2)CC1 | 2.47
32 | Cc1ccc2nc(-c3ccccc3Cl)cc(C(=O)Nc3cc(C)on3)c2c1 | -9.62
33 | CCN=C1S/C(=C\c2cn(CC)c3ccccc23)C(=O)N1CC | 3.71
34 | CSc1nncn1/N=C/c1ccccc1F | -7.49
35 | O=C(NCc1ccccc1)c1ccc(NC(=O)C2CCCO2)cc1 (centres unmarked) | -6.37
36 | Cc1ccc(NC(=O)NCc2ccc3c(c2)OCO3)cc1 | 5.69
37 | C/C=C(\C)C(=O)NCCN1C2=NC[C@H](Cc3ccc(O)cc3)N2C[C@H]1Cc1ccc(O)cc1 | 16.5
38 | O=C(CCC(=O)c1cccs1)NCc1cccc(C(F)(F)F)c1 | -7.88
39 | CC(=O)NC(C(=O)NCC(N)=O)C(C)C (centres unmarked) (Ac-[ξV]-Gly-NH2) | 1.56
40 | CCc1c(C)nc2cc(C)[nH]n2c1=O | 9.73
41 | Cc1nn(C)c(C)c1NC(=O)c1ccc(S(=O)(=O)N(C)C)cc1 | 10.3
42 | COc1ccc(CNC(N)=O)cc1 | -0.197
43 | CCOC(=O)c1cc(C)nc(Sc2ccc(C)cc2)c1C#N | 5.36
44 | COc1ccccc1N(C)S(=O)(=O)c1ccc(Cl)c(C(=O)N2CCC2)c1 | -6.47
45 | C=CCOC(=O)C1=C[C@@H](c2cn(C(C)=O)c3ccccc23)C[C@@H](OCc2ccc(CO)cc2)O1 | -93.5
46 | CCOc1ccccc1N1CCN(C(=S)NCc2ccc(Cl)cc2)CC1 | 21

Row | SMILES | hERG current change (%, negative = inhibition) at 10uM [%]
47 | COc1ccc(S(=O)(=O)Nc2ccc(-c3ccc(N4CCCC4)nn3)cc2)cc1C | 5.46
48 | O=c1[nH]c(SCc2cccc(Cl)c2)nc2c1CCCC2 | 0.225
49 | COc1ccccc1-c1cc(C(=O)NCCCn2ccnc2)no1 | -14.2
50 | CCS(=O)(=O)C1=NN2C(=N)/C(=C\c3ccc(OS(=O)(=O)c4ccccc4)c(OC)c3)C(=O)N=C2S1 | 24
51 | COCCNC(=O)Nc1ccc2c(c1)N(C)C(=O)c1ccccc1S2 | -0.368
52 | Cc1ccc(C)c(C(=O)Nc2ccncc2)c1 | 20.5
53 | COc1ccc(-c2cc(C(=O)N3CCCCCC3)c3cc(C)ccc3n2)cc1 | 23.1
54 | COc1ccc(S(=O)(=O)Nc2nc3ccccc3nc2Nc2ccc3c(c2)OCO3)cc1 | 0.543
55 | CCC1CCCCN1S(=O)(=O)Cc1ccccc1Cl (centres unmarked) | 6.5
56 | Oc1ccc(C=Nc2cccc3ncccc23)c(O)c1 | 0.892
57 | CC1(N2CCCCC2)CC2(O)C(=[N+]1[O-])CCC/C2=N\O (centres unmarked) | 5.63
58 | COc1ccc(C(CC(=O)O)NS(=O)(=O)c2ccc3c(c2)NC(=O)CO3)cc1 (centres unmarked) | 6.4
59 | CCCN(CCC)CCCNC(=O)C1c2cc(OC)c(OC)cc2C(=O)N(C)C1c1cccnc1 (centres unmarked) | 21.1
60 | O=C(CN1CCc2cc3c(cc2C1)OCCCO3)Nc1c(F)cccc1F | 14.1
61 | CCCCCOc1ccc(C2NC(=O)NC2=O)cc1 (centres unmarked) | -7.42
62 | COc1ccc(C2=NCc3nnc(C)n3-c3ccc(Cl)cc32)cc1Cl | -10.9
63 | COc1ccccc1N1CCNCC1.Cl | 22.5
64 | Cc1ccc(NC(=O)C2CCN(C(=O)c3ccco3)CC2)cc1 | -14.2
65 | COc1ccc(C(=O)NCCS(=O)(=O)N2CCN(Cc3ccccc3)CC2)cc1 | -16.7
66 | CN1C(=O)c2ccccc2Sc2ccc(C(=O)N3CCC4(CC3)OCCO4)cc21 | -16.9
67 | CC(C)(C)C(=O)CN1CCN(S(=O)(=O)c2ccc(F)cc2)CC1 | 10.7
68 | COc1ccccc1-c1nc(C#N)c(N2CCC(Cc3ccccc3)CC2)o1 | 4.93
69 | Cc1ccc(Nc2nc(N3CCOCC3)nc(N3CCOCC3)n2)cc1C.Cl | -0.303

Row | SMILES | hERG current change (%, negative = inhibition) at 10uM [%]
70 | CN(CCNC(=O)Cn1c(=O)sc2ccccc21)Cc1ccccc1 | -16.4
71 | Cc1cccc(NC(=O)CN2CCN(C(=O)c3cncn3-c3ccc(F)cc3)CC2)c1C | -60.9
72 | O=C(NC1CCCCC1)c1ccccc1NC(=O)C1CC(=O)N(c2ccccc2)C1 (centres unmarked) | -76.8
73 | CCOC(=O)C1(Cc2ccc(OC)cc2)CCN(C(=O)CCN2CCCC2=O)CC1 | -3.22
74 | CCOc1ccc(CCNC(=O)C2(c3ccccc3)CC2)cc1OCC | 8.6
75 | Cc1cc(C)c(S(=O)(=O)N2CCC(C(=O)NCc3ccco3)CC2)c(C)c1 | -25.5
76 | CCCCC1(C)OC(=O)C(=Cc2ccc(N(CC)CC)cc2)C(=O)O1 (centres unmarked) | 1.88
77 | Cc1cc(=O)n2nc(N3CCCC(C(=O)NCCC4=CCCCC4)C3)sc2n1 (centres unmarked) | -19.8
78 | O=C(NCCc1ccccc1)c1ccc(=O)oc1 | 11.5
79 | Cc1cccc(N2CCN(C(=O)c3cccc(N4CCCC4=O)c3)C(C)C2)c1 (centres unmarked) | -3.19
80 | O=C1CCc2cc(S(=O)(=O)NC(Cc3ccccc3)C(=O)NCCC3=CCCCC3)ccc2N1 (centres unmarked) | -46.7
81 | COc1ccc(C(=O)O/N=C(\N)c2ccncc2)cc1OC | -5.55
82 | CCN(CC)S(=O)(=O)c1cccc(NC(=O)CNc2cccc(S(=O)(=O)N3CCCC3)c2)c1 | 5.46
83 | CCOC(=O)C/C(N)=N/N(C)c1ncc(C(F)(F)F)cc1Cl | 30.7
84 | Cc1cc(C)cc(NC2=CC(=O)CC(c3ccco3)C2)c1 (centres unmarked) | 17.3
85 | CN(C)CCCNc1oc(/C=C/c2ccccc2)nc1C#N | -32.5
86 | CCOC(=O)C1CCN(C(=O)c2ccc(Cl)c(NC3=NC4CS(=O)(=O)CC4S3)c2)CC1 (centres unmarked) | 12.2
87 | CC(C)C[C@H](NC(=O)OC(C)(C)C)C(=O)N1CCC(C(=O)O)CC1 | 12.4
88 | Cc1cccc2sc(NC(=O)c3ccc(Cl)s3)nc12 | 4.72
89 | CC(C)N1CCC(N2CCN(Cc3cccnc3)CC2CCO)CC1 (centres unmarked) | 20.3
